Test results: patent publication US20210070829A1 (ZHEJIANG DOER BIOLOGICS, published 2021)
Substitutions are numbered along the chain they refer to. Read-outs that look alike come from different tables or passages of the source.

B1: C498L13F4 (Fc fusion)
chain: HSQGTFTSDYSEYLDSERARDFVAWLEAGGGGGGSGGGGSGGGGSA[human IgG1 Fc with changes omitted here]
B2: C756 L20F4L10M8 (Fc fusion)
chain: HSQGTFTSDYSKYLDEQAAQDFVQWLMNTKRNRNNIAGGGGSGGGGSGGGGSGGGGSGGGGSA[human IgG1 Fc with changes omitted here]GGGAGGGGAGGGGAHPIPDSSPLLQFGGQVRQRYLYTDDAQQTEAHLEIREDGTVGGAADQSPESLLQLKALKPGVIQILGVKTSRFLCQRPDGALYGSLHFDPEACSFRERLLEDGYNVYQSEAHGLPLHLPGNKSPHRDPAPRGPARFLPLPGLPPALPEPPGILAPQPPDVGSSDPLSMVGGSQGRSPSAAS
B3: C503 L15F2L9M5 (Fc fusion)
chain: HSQGTFTSDYSKYLEEEAVRLFIQWLMNTGSGGGGSGGGGSGGGGS[human IgG1 Fc with changes omitted here]GGGSGGGGSGGGGSHPIPDSSPLLQFGGQVRQRYLYTDDAQQTEAHLEIREDGTVGGAEDQSPESLLQLKALKPGVIQILGVKTSRFLCQRPDGALYGSLHFDPEACSFRERLLEDGYNVYQSEAHGLPLHCPGNKSPHRDPAPRGPCRFLPLPGLPPALPEPPGILAPQPPDVGSSDPLSMVGGSQGRSPSYES
B4: C353 L13F3L10M4 (Fc fusion)
chain: HSQGTFTSDYSKYLDEQAAQDFVQWLMNGPSSGAPPSGGGGSGGGGSGGGGSA[human IgG1 Fc with changes omitted here]GGGGAGGGGAGGGGAHPIPDSSPLLQFGGQVRQRYLYTDDAQQTEAHLEIREDGTVGGAADQSPESLLQLKALKPGVIQILGVKTSRFLCQRPDGALYGSLHFDPEACSFRERLLEDGYNVYQSEAHGLPLHCPGNKSPHRDPAPRGPCRFLPLPGLPPALPEPPGILAPQPPDVGSSDPLAMVGGSQGRSPSYES
B5: C756L20F4 (Fc fusion)
chain: HSQGTFTSDYSKYLDEQAAQDFVQWLMNTKRNRNNIAGGGGSGGGGSGGGGSGGGGSGGGGSA[human IgG1 Fc with changes omitted here]
B6: C498 L13F4L13M4 (Fc fusion)
chain: HSQGTFTSDYSEYLDSERARDFVAWLEAGGGGGGSGGGGSGGGGSA[human IgG1 Fc with changes omitted here]GGGSGGGGSGGGGSAHPIPDSSPLLQFGGQVRQRYLYTDDAQQTEAHLEIREDGTVGGAADQSPESLLQLKALKPGVIQILGVKTSRFLCQRPDGALYGSLHFDPEACSFRERLLEDGYNVYQSEAHGLPLHCPGNKSPHRDPAPRGPCRFLPLPGLPPALPEPPGILAPQPPDVGSSDPLAMVGGSQGRSPSYES
B7: C731 L5F2L9M9 (Fc fusion)
chain: HSQGTFTSDLSKQMDSRAAQDFIEWLKNTKRNRNNIAGGGGSGGGGS[human IgG1 Fc with changes omitted here]GGGSGGGGSGGGGSHPIPDSSPLLQFGGQVRQRYLYTDDAQQTEAHLEIREDGTVGGAADQSPESLLQLKALKPGVIQILGVKTSRFLCQRPDGALYGSLHFDPEACSFRERLLEDGYNVYQSEAHGLPLHCPGNKSPHRDPAPRGPCRFLPLPGLPPALPEPPGILAPQPPDVGSSDPLAMVGGSQGRSPSYAS
B8: F9L10W (Fc fusion)
chain: [human IgG4 Fc with S228P F234A L235A (EU numbers) omitted here]GGGGAGGGGAGGGGAHPIPDSSPLLQFGGQVRQRYLYTDDAQQTEAHLEIREDGTVGGAADQSPESLLQLKALKPGVIQILGVKTSRFLCQRPDGALYGSLHFDPEACSFRELLLEDGYNVYQSEAHGLPLHLPGNKSPHRDPAPRGPARFLPLPGLPPALPEPPGILAPQPPDVGSSDPLSMVGPSQGRSPSYAS
B9: F9L10M2 (Fc fusion)
chain: [human IgG4 Fc with S228P F234A L235A (EU numbers) omitted here]GGGGAGGGGAGGGGAHPIPDSSPLLQFGGQVRQRYLYTDDAQQTEAHLEIREDGTVGGAADQSPESLLQLKALKPGVIQILGVKTSRFLCQRPDGALYGSLHFDPEACSFRERLLEDGYNVYQSEAHGLPLHCPGNKSPHRDPAPRGPCRFLPLPGLPPALPEPPGILAPQPPDVGSSDPLSMVGGSQGRSPSYES
B10: C743 L18F7L8M10 (Fc fusion)
chain: HSQGTFTSDYSKYLDSQEAQDFVQWLMNTKRNRNNIAGSGGGGSGGGGSGGGGSGGGGS[human IgG4 Fc with S228P N297A (EU numbers) omitted here]GGSGGGAGGGGSDSSPLLQFGGQVRQRYLYTDDAQQTEAHLEIREDGTVGGAADQSPESLLQLKALKPGVIQILGVKTSRFLCQRPDGALYGSLHFDPEACSFRERLLEDGYNVYQSEAHGLPLHCPGNKSPHRDPAPRGPCRFLPLPGLPPALPEPPGILAPQPPDVGSSDPLAMVGGSQGRSPSYAS
B11: C503L15F2 (Fc fusion)
chain: HSQGTFTSDYSKYLEEEAVRLFIQWLMNTGSGGGGSGGGGSGGGGS[human IgG1 Fc with changes omitted here]
B12: C001L13F8 (Fc fusion)
chain: HSQGTFTSDYSKYLDSRRAQDFVQWLMNTGGGGSGGGGSGGGGSA[human IgG4 Fc with S228P N297A (EU numbers) omitted here]
B13: C319L13F8 (Fc fusion)
chain: B12 chain with S16G, R17Q, R18A, T29G
B14: CG283L13F8 (Fc fusion)
chain: B12 chain with S16E, R18A, T29G
B15: C308L13F8 (Fc fusion)
chain: B12 chain with S16E, R17Q, R18A
B16: CG214L13F8 (Fc fusion)
chain: B12 chain with R17Q, R18A, T29G
B17: CG267L13F8 (Fc fusion)
chain: B12 chain with R18A, T29G
B18: CG303L13F8 (Fc fusion)
chain: B12 chain with S16E, R17E, R18A, T29G
B19: CG308L13F8 (Fc fusion)
chain: B12 chain with S16E, R17Q, R18A, T29G
B20: C214L13F8 (Fc fusion)
chain: B12 chain with R17Q, R18A
B21: C224L13F8 (Fc fusion)
chain: B12 chain with S16E, R18A
B22: C303L13F8 (Fc fusion)
chain: B12 chain with S16E, R17E, R18A
B23: C708 L10F4L14M7 (Fc fusion)
chain: HSQGTFTSDYSKYLDSEAAQDFVQWLMNTKRNRNNIAGGGGAGGGGAGGGGA[human IgG1 Fc with changes omitted here]GGGAGGGGAGGGGASHPIPDSSPLLQFGGQVRQEYLYTDDAQQTEAHLEIREDGTVGGAADQSPESLLQLKALKPGVIQILGVKTSRFLCQRPDGALYGSLHFDPEACSFRERLLEDGYNVYQSEAHGLPLHLPGNKSPHRDPAPRGPARFLPLPGLPPALPEPPGILAPQPPDVGSSDPLSMVGGSQGRSPSYES

What was measured:
Experiment in all cases: cell-based or functional assay
human GLP-1 receptor [1] = biological target: T1, human GLP-1 receptor (human, UniProt P43220 24-463)
Glucagon receptor [2] = biological target: Glucagon receptor
human GLP-1 receptor [3] = biological target: T1, human GLP-1 receptor; remark: listed apart in the source
[4] = biological target: FGFR/β-Klotho receptor complex
Glucagon receptor [5] = biological target: Glucagon receptor; remark: listed apart in the source
human GLP-1 receptor [6] = biological target: T1, human GLP-1 receptor; remark: listed apart in the source
Glucagon receptor [7] = biological target: Glucagon receptor; remark: listed apart in the source

| Binder | GLP-1R agonist activity EC50 (luciferase reporter) (human GLP-1 receptor [3]) [nM] | FGF21 activity EC50 (luciferase reporter) [4] [nM] | GCGR agonist activity EC50 (luciferase reporter) (Glucagon receptor [5]) [nM] | GLP-1R agonist activity EC50 (luciferase reporter) (human GLP-1 receptor [6]) [nM] | GCGR agonist activity EC50 (luciferase reporter) (Glucagon receptor [7]) [nM] | also measured |
| --- | --- | --- | --- | --- | --- | --- |
| B1 | – | – | – | – | – | GLP-1R agonist activity EC50 (luciferase reporter) (human GLP-1 receptor [1]): 2.01 nM; GCGR agonist activity EC50 (luciferase reporter) (Glucagon receptor [2]): 1.88 nM |
| B2 | 8.82 | 0.96 | 6.49 | – | – | – |
| B3 | 4.36 | 0.91 | 3.24 | – | – | – |
| B4 | 1.36 | 1.67 | 1.11 | – | – | – |
| B5 | – | – | – | – | – | GLP-1R agonist activity EC50 (luciferase reporter) (human GLP-1 receptor [1]): 13.7 nM; GCGR agonist activity EC50 (luciferase reporter) (Glucagon receptor [2]): 21.2 nM |
| B6 | 2.28 | 0.83 | 2.3 | – | – | – |
| B7 | 9.65 | 1.08 | 6.57 | – | – | – |
| B8 | – | 0.48 | – | – | – | – |
| B9 | – | 0.71 | – | – | – | – |
| B10 | 6.67 | 1.36 | 7.34 | – | – | – |
| B11 | – | – | – | – | – | GLP-1R agonist activity EC50 (luciferase reporter) (human GLP-1 receptor [1]): 2.13 nM; GCGR agonist activity EC50 (luciferase reporter) (Glucagon receptor [2]): 1.78 nM |
| B12 | – | – | – | 380 | 7.98 | – |
| B13 | – | – | – | 378 | 1.44 | – |
| B14 | – | – | – | 330 | 1.24 | – |
| B15 | – | – | – | 409 | 1.09 | – |
| B16 | – | – | – | 360 | 1.12 | – |
| B17 | – | – | – | 361 | 1.15 | – |
| B18 | – | – | – | 452 | 1.19 | – |
| B19 | – | – | – | 350 | 1.16 | – |
| B20 | – | – | – | 438 | 0.97 | – |
| B21 | – | – | – | 335 | 1.11 | – |
| B22 | – | – | – | 389 | 1.03 | – |
| B23 | 9.56 | 1.67 | 5.61 | – | – | – |
